Assay results reported in US20210238308A1 (Chugai, published 2021).

T1: PRYSPRY domain of human TRIM21 with N-terminal 6xHis tag (human)
T1 construct: Expressed in E. coli; also called hTRIM21; human TRIM21.PRYSPRY
T1 chain: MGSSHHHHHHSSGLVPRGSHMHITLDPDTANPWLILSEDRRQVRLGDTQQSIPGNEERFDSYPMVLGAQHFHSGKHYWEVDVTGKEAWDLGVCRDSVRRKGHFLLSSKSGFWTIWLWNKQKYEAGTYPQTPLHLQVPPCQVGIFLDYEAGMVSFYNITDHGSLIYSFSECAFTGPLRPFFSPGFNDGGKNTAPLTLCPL

T2: PRYSPRY domain of mouse TRIM21 with N-terminal 6xHis tag (mouse)
T2 construct: Expressed in E. coli; also called mTRIM21; mouse TRIM21.PRYSPRY
T2 chain: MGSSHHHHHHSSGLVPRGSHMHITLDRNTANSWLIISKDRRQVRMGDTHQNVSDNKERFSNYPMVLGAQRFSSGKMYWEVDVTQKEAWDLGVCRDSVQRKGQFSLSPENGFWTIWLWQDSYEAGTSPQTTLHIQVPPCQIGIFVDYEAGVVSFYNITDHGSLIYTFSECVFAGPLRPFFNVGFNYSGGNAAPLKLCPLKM

B1: MRAH-G1d/MRAL-KT0 H435D (antibody, human IgG1, kappa)
heavy: QVQLQESGPGLVRPSQTLSLTCTVSGYSITSDHAWSWVRQPPGRGLEWIGYISYSGITTYNPSLKSRVTMLRDTSKNQFSLRLSSVTAADTAVYYCARSLARTTAMDYWGQGSLVTVSS[human IgG1 constant region with H435D (EU numbers) omitted here]
light: DIQMTQSPSSLSASVGDRVTITCRASQDISSYLNWYQQKPGKAPKLLIYYTSRLHSGVPSRFSGSGSGTDFTFTISSLQPEDIATYYCQQGNTLPYTFGQGTKVEIKRTVAAPSVFIFPPSDEQLKSGTASVVCLLNNFYPREAKVQWKVDNALQSGNSQESVTEQDSKDSTYSLSSTLTLSKADYEKHKVYACEVTHQGLSSPVTKSFNRGEC
notes: copies: 2 + 2
B2: MRAH-G1d/MRAL-KT0 H435E (antibody, human IgG1, kappa)
heavy: QVQLQESGPGLVRPSQTLSLTCTVSGYSITSDHAWSWVRQPPGRGLEWIGYISYSGITTYNPSLKSRVTMLRDTSKNQFSLRLSSVTAADTAVYYCARSLARTTAMDYWGQGSLVTVSS[human IgG1 constant region with H435E (EU numbers) omitted here]
light: B1 light
notes: copies: 2 + 2
B3: MRAH-G1d/MRAL-KT0 H435F (antibody, human IgG1, kappa)
heavy: QVQLQESGPGLVRPSQTLSLTCTVSGYSITSDHAWSWVRQPPGRGLEWIGYISYSGITTYNPSLKSRVTMLRDTSKNQFSLRLSSVTAADTAVYYCARSLARTTAMDYWGQGSLVTVSS[human IgG1 constant region with H435F (EU numbers) omitted here]
light: B1 light
notes: copies: 2 + 2
B4: MRAH-G1d/MRAL-KT0 H435G (antibody, human IgG1, kappa)
heavy: QVQLQESGPGLVRPSQTLSLTCTVSGYSITSDHAWSWVRQPPGRGLEWIGYISYSGITTYNPSLKSRVTMLRDTSKNQFSLRLSSVTAADTAVYYCARSLARTTAMDYWGQGSLVTVSS[human IgG1 constant region with H435G (EU numbers) omitted here]
light: B1 light
notes: copies: 2 + 2
B5: MRAH-G1d/MRAL-KT0 H435I (antibody, human IgG1, kappa)
heavy: QVQLQESGPGLVRPSQTLSLTCTVSGYSITSDHAWSWVRQPPGRGLEWIGYISYSGITTYNPSLKSRVTMLRDTSKNQFSLRLSSVTAADTAVYYCARSLARTTAMDYWGQGSLVTVSS[human IgG1 constant region with H435I (EU numbers) omitted here]
light: B1 light
notes: copies: 2 + 2
B6: MRAH-G1d/MRAL-KT0 H435K (antibody, human IgG1, kappa)
heavy: QVQLQESGPGLVRPSQTLSLTCTVSGYSITSDHAWSWVRQPPGRGLEWIGYISYSGITTYNPSLKSRVTMLRDTSKNQFSLRLSSVTAADTAVYYCARSLARTTAMDYWGQGSLVTVSS[human IgG1 constant region with H435K (EU numbers) omitted here]
light: B1 light
notes: copies: 2 + 2
B7: MRAH-G1d/MRAL-KT0 H435L (antibody, human IgG1, kappa)
heavy: QVQLQESGPGLVRPSQTLSLTCTVSGYSITSDHAWSWVRQPPGRGLEWIGYISYSGITTYNPSLKSRVTMLRDTSKNQFSLRLSSVTAADTAVYYCARSLARTTAMDYWGQGSLVTVSS[human IgG1 constant region with H435L (EU numbers) omitted here]
light: B1 light
notes: copies: 2 + 2
B8: MRAH-G1d/MRAL-KT0 H435M (antibody, human IgG1, kappa)
heavy: QVQLQESGPGLVRPSQTLSLTCTVSGYSITSDHAWSWVRQPPGRGLEWIGYISYSGITTYNPSLKSRVTMLRDTSKNQFSLRLSSVTAADTAVYYCARSLARTTAMDYWGQGSLVTVSS[human IgG1 constant region with H435M (EU numbers) omitted here]
light: B1 light
notes: copies: 2 + 2
B9: MRAH-G1d/MRAL-KT0 H435N (antibody, human IgG1, kappa)
heavy: QVQLQESGPGLVRPSQTLSLTCTVSGYSITSDHAWSWVRQPPGRGLEWIGYISYSGITTYNPSLKSRVTMLRDTSKNQFSLRLSSVTAADTAVYYCARSLARTTAMDYWGQGSLVTVSS[human IgG1 constant region with H435N (EU numbers) omitted here]
light: B1 light
notes: copies: 2 + 2
B10: MRAH-G1d/MRAL-KT0 H435S (antibody, human IgG1, kappa)
heavy: QVQLQESGPGLVRPSQTLSLTCTVSGYSITSDHAWSWVRQPPGRGLEWIGYISYSGITTYNPSLKSRVTMLRDTSKNQFSLRLSSVTAADTAVYYCARSLARTTAMDYWGQGSLVTVSS[human IgG1 constant region with H435S (EU numbers) omitted here]
light: B1 light
notes: copies: 2 + 2
B11: MRAH-G1d/MRAL-KT0 H435T (antibody, human IgG1, kappa)
heavy: QVQLQESGPGLVRPSQTLSLTCTVSGYSITSDHAWSWVRQPPGRGLEWIGYISYSGITTYNPSLKSRVTMLRDTSKNQFSLRLSSVTAADTAVYYCARSLARTTAMDYWGQGSLVTVSS[human IgG1 constant region with H435T (EU numbers) omitted here]
light: B1 light
notes: copies: 2 + 2
B12: MRAH-G1d/MRAL-KT0 H435V (antibody, human IgG1, kappa)
heavy: QVQLQESGPGLVRPSQTLSLTCTVSGYSITSDHAWSWVRQPPGRGLEWIGYISYSGITTYNPSLKSRVTMLRDTSKNQFSLRLSSVTAADTAVYYCARSLARTTAMDYWGQGSLVTVSS[human IgG1 constant region with H435V (EU numbers) omitted here]
light: B1 light
notes: copies: 2 + 2
B13: MRAH-G1d/MRAL-KT0 H435W (antibody, human IgG1, kappa)
heavy: QVQLQESGPGLVRPSQTLSLTCTVSGYSITSDHAWSWVRQPPGRGLEWIGYISYSGITTYNPSLKSRVTMLRDTSKNQFSLRLSSVTAADTAVYYCARSLARTTAMDYWGQGSLVTVSS[human IgG1 constant region with H435W (EU numbers) omitted here]
light: B1 light
notes: copies: 2 + 2
B14: MRAH-G1d/MRAL-KT0 H435Y (antibody, human IgG1, kappa)
heavy: QVQLQESGPGLVRPSQTLSLTCTVSGYSITSDHAWSWVRQPPGRGLEWIGYISYSGITTYNPSLKSRVTMLRDTSKNQFSLRLSSVTAADTAVYYCARSLARTTAMDYWGQGSLVTVSS[human IgG1 constant region with H435Y (EU numbers) omitted here]
light: B1 light
notes: copies: 2 + 2

Each binder was assayed against T3, human FcRn (human, UniProt P55899 in part; P61769 in part, limits assumed) (assay: SPR, Protein L capture).
T3 construct: also called hFcRn
T3 sequence (P55899 24-290 limits assumed, form in doubt, chain 1 of 2): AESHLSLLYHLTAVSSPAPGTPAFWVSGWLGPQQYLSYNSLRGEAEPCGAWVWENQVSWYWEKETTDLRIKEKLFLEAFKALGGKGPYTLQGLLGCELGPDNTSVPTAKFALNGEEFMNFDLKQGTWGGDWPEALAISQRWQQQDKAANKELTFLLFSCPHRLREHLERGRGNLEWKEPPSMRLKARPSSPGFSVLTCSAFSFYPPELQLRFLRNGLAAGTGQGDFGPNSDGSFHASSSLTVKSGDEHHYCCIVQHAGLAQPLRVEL
T3 sequence (P61769 21-119 limits assumed, form in doubt, chain 2 of 2, further chain): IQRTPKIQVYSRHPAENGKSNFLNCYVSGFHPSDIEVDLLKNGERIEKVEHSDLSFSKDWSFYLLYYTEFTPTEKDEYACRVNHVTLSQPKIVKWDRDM

First: B1
Second: B2
The “hFcRn binding level ratio (variant/control antibody)” value of the first is lower: 0.03 for the first, 0.25 for the second.

Going from B3 to B4, the “hFcRn binding level ratio (variant/control antibody)” value falls from 0.05 to 0.03.

First: B5
Second: B6
The “hFcRn binding level ratio (variant/control antibody)” value of the first is lower: 0.01 for the first, 3.52 for the second.

First: B7
Second: B8
The “hFcRn binding level ratio (variant/control antibody)” value of the first is lower: 0.04 for the first, 0.05 for the second.

Going from B9 to B10, the “hFcRn binding level ratio (variant/control antibody)” value falls from 0.23 to 0.02.

First: B11
Second: B12
The “hFcRn binding level ratio (variant/control antibody)” value of the first is lower: 0.02 for the first, 0.03 for the second.

First: B13
Second: B14
The “hFcRn binding level ratio (variant/control antibody)” value of the first is lower: 0.01 for the first, 0.02 for the second.

Target: T1, PRYSPRY domain of human TRIM21 with …
Assay: SPR, Protein L capture

Going from B1 to B2, the “hTRIM21 binding level ratio (variant/control antibody)” value rises from 0.007 to 0.229.

First: B3
Second: B4
The “hTRIM21 binding level ratio (variant/control antibody)” value of the first is higher: 0.018 for the first, -0.008 for the second.

Compared with B5, B7 is higher in “hTRIM21 binding level ratio (variant/control antibody)” value: -0.08 for the first, 0.01 for the second.

First: B8
Second: B9
The “hTRIM21 binding level ratio (variant/control antibody)” value of the first is lower: -0.032 for the first, -0.021 for the second.

Going from B10 to B11, the “hTRIM21 binding level ratio (variant/control antibody)” value rises from -0.082 to -0.021.

Going from B12 to B13, the “hTRIM21 binding level ratio (variant/control antibody)” value rises from -0.003 to 0.067.

With B14 the “hTRIM21 binding level ratio (variant/control antibody)” value was 0.077.

B6: no binding (tested: 100 nM).

Target: T2, PRYSPRY domain of mouse TRIM21 with …
Assay: SPR, Protein L capture

Going from B1 to B2, the “mTRIM21 binding level ratio (variant/control antibody)” value rises from 0.208 to 0.708.

First: B3
Second: B4
The “mTRIM21 binding level ratio (variant/control antibody)” value of the first is higher: 2.79 for the first, 1.28 for the second.

First: B5
Second: B7
The “mTRIM21 binding level ratio (variant/control antibody)” value of the first is lower: 0.461 for the first, 1.95 for the second.

Going from B8 to B9, the “mTRIM21 binding level ratio (variant/control antibody)” value falls from 2.04 to 1.15.

Going from B10 to B11, the “mTRIM21 binding level ratio (variant/control antibody)” value rises from 1.23 to 1.59.

Going from B12 to B13, the “mTRIM21 binding level ratio (variant/control antibody)” value rises from 1.35 to 1.87.

For B14, the “mTRIM21 binding level ratio (variant/control antibody)” value was 1.79.

B6: no binding (tested: 100 nM).
